Experimental data from PubChem BioAssay AID624296 (National Center for Advancing Translational Sciences (NCATS), 2012).
The campaign covered roughly 350,000 compounds. About 9,900 (2.8%) were called active. The shares of active, inactive and inconclusive entries below differ from those in the screen. Calls come from the whole dose curve; as a rule, active = well fitted activation curve with a large enough effect; inconclusive = small, poorly fitted or top-dose-only effect; inactive = no such curve, though single readings can be large or run the other way. No potency is given beside an inconclusive call; the fits are too rough.

Assay: A quantitative high throughput screen for small molecules that induce DNA re-replication in MCF 10a normal breast cells. For activity, positive = re-replication: % of control where 0% means no effect. Note: nearly all actives have a fitted effect of over 50% in size.
Details: MCF 10A DNA re-replication, Hoechst nuclear intensity, 48 h; activity, positive = re-replication: at 46.1 µM (top of the series)
Potency is the fitted concentration of half-maximal effect; tags give direction and shape of the fitted curve.

SMILES | Potency | activity, positive = re-replication
N#Cc1nc(Cc2ccccc2)oc1NCc1ccccc1Cl | inconclusive [activator, partial curve, poor fit] | –
O=C(/C=C/c1ccccc1)Nc1cccc(S(=O)(=O)Nc2ccccc2F)c1 | inconclusive [activator, single point] | –
CCOC(=O)C1=C(C)NC(C)=C(C(=O)OCC)C1c1cc2ccc(C)cc2[nH]c1=O | inconclusive [activator, single point] | –
Cc1ccc(-n2ncc3c(=O)n(CC(=O)NCc4ccco4)cnc32)cc1 | inconclusive [activator, full curve] | –
CC(C)c1nc2sc(C(=O)O)c(N)c2c2c1CCCC2 | inconclusive [activator, single point] | –
CCOc1cc(S(=O)(=O)N2CCC(c3nc4ccccc4s3)CC2)c(OCC)cc1S(=O)(=O)N1CCCCC1 | inconclusive [activator, partial curve, poor fit] | –
O=C(COC(=O)CCN1C(=O)/C(=C\C=C\c2ccccc2)SC1=S)Nc1ccc(Br)cc1 | – | inactive: 26%
COc1ccc(C(O)Cn2ccsc2=NC(C)=O)cc1 (stereo not given) | inconclusive [activator, partial curve, poor fit] | –
CCOc1ccc(C2NC(=O)C(C#N)=C(S)N2c2ccc(OC)cc2)cc1OC (stereo not given) | – | inactive: -4.61%
Nc1cc(=O)[nH]c(SCc2ccc(Cl)cc2Cl)n1 | – | inactive: -0.447%
COc1cc(OC)c(OC)cc1/C=C1\CCC(C2CCCC2)C1=O (stereo not given) | inconclusive [activator, single point] | –
c1ccc(-c2cn3nc(-c4ccccc4)c(-c4ccccc4)nc3n2)cc1 | active: 7.31 µM | –
CC(C)(C)Nc1nc(Nc2ccc([N+](=O)[O-])cc2)nc(NC(C)(C)C)n1 | – | inactive: 7.09%
OCCCc1nc2n(n1)C(c1ccccc1Cl)C=C(c1cccs1)N2 (stereo not given) | inconclusive [activator, single point] | –
Cn1c(=O)[nH]c(=O)c2c1nc(N1CCCCC1)n2CCCSc1nc2ccccc2s1 | inconclusive [activator, partial curve, poor fit] | –
C=CCOc1ccc2cccc(/C=N/NC(=O)c3cc4cc([N+](=O)[O-])ccc4s3)c2c1 | inconclusive [activator, single point] | –
CC(C)c1ccc(NC(=O)NC2CCN(CC(=O)Nc3cccc4ccccc34)CC2)cc1 | inconclusive [activator, single point] | –
CCN(CC(=O)Nc1ccccc1OC)C(=O)COc1ccc(C#N)cc1 | – | inactive: 4.2%
COc1cccc(CN2CCN(Cc3cccc(Oc4ccccc4)c3)CC2)c1OC | active: 14.6 µM | –
O=C(NCc1ccccc1)[C@]1(C(F)(F)F)C[C@H](CCc2ccccc2)CCCO1 | active: 1.84 µM | –
COC(=O)/C(C#N)=C\c1c(OC)[nH]c2ccccc12 | inconclusive [activator, single point] | –
C=CCSc1n[nH]c2nc3c(c(=O)n12)C1(CCCC1)Cc1ccccc1-3 | inconclusive [activator, single point] | –
COc1cc(OC)cc(-c2c(-c3ccc(F)cc3)c3cc(-c4ccc5c(c4)OCCO5)ccc3n2C)c1 | inconclusive [activator, partial curve, poor fit] | –
C[Si](C)(C)n1ccnc1 | inconclusive [activator, full curve, poor fit] | –

SMILES | Potency | activity, positive = re-replication
CC1CCN(CC(=O)Nc2ccccc2C(=O)c2ccccc2)CC1 | – | inactive: 21%
COc1ccc(C(O)P(=O)(OCC(C)C)OCC(C)C)c(OC)c1 (stereo not given) | – | inactive: -2.14%
Cc1cc(OCC(=O)N2CCN(c3ccccn3)CC2)cc(C)c1Br | inconclusive [activator, single point] | –
COc1ccc(C(CC(=O)c2ccc(C)cc2)C(C#N)C#N)cc1OC (stereo not given) | active: 20.6 µM | –
CCN(CC)c1ccc(C(=S)NC2CCCCC2)cc1 | inconclusive [activator, partial curve, poor fit] | –
NC(=O)c1cc2c(s1)-c1cc(Cl)ccc1SC2 | inconclusive [activator, partial curve, poor fit] | –
CCOC(=O)c1c(CN2CCCCC2)n(C)c2cc(Br)c(OC)cc12 | – | inactive: 3.77%
O=C(N/N=C/c1ccccn1)c1cc(Br)ccc1O | inconclusive [activator, single point] | –
CC(C)NCCCCOc1ccc(Br)cc1Cl | – | inactive: 21.6%
O=S1(=O)CCN(c2ccccc2CC(c2c[nH]c3ccccc23)c2c[nH]c3ccccc23)CC1 | inconclusive [activator, single point] | –
COc1ccc(OC)c(C2Nc3c(Cl)ccc(C(=O)O)c3C3C=CCC32)c1 (stereo not given) | – | inactive: 22.5%
CCCC[n+]1ccn(-c2nc3ccccc3nc2[N-]S(=O)(=O)c2ccc(Cl)cc2)c1 | inconclusive [activator, single point] | –
Cc1ccc(-c2nnnn2C2C/C(=N\NC(N)=S)C3OCC2O3)cc1 (stereo not given) | inconclusive [activator, single point] | –
CC12CC(c3ccccc3O1)C(C(=O)NCc1ccccc1)C(=O)N2 (stereo not given) | inconclusive [activator, partial curve] | –
Cc1csc(Nc2ccc(Cl)cc2)[n+]1-c1ccc(Cl)cc1 | inconclusive [activator, single point] | –
O=C(COc1ccccc1Cl)NNC(=O)c1ccc2c(=O)n3c(nc2c1)CCC3 | – | inactive: 2.34%
COc1ccccc1C1=NOC(C)(c2sc(-c3ccc(Cl)cc3)nc2C)C1 (stereo not given) | inconclusive [activator, single point] | –
O=C(Nc1cccc(F)c1)N(Cc1ccc(Cl)cc1)CC(O)C(F)(F)F (stereo not given) | – | inactive: 5.06%
CC(C)(C)c1cc(-c2n[nH]c(=S)n2-c2ccc(Cl)cc2)n[nH]1 | – | inactive: -11.8%
O=C(Nc1ccccc1O)c1cc(S(=O)(=O)N2CCOCC2)c(Cl)cc1Cl | inconclusive [activator, full curve, poor fit] | –
Nc1ccc2oc(-c3cccc4ccccc34)nc2c1 | inconclusive [activator, single point] | –
CSc1ccc(OC2CCN(Cc3ccccc3)CC2)cc1 | inconclusive [activator, partial curve, poor fit] | –
COc1cc(/C=N/NC(=O)c2ccc(Cl)cc2)ccc1OCC(=O)N1CC(C)OC(C)C1 (stereo not given) | – | inactive: 0.0829%
Cc1cc(C)nc(Sc2nc(C)nc3c2oc2ccccc23)n1 | inconclusive [activator, single point] | –

SMILES | Potency | activity, positive = re-replication
COc1ccc(N2CCN(c3ncnc4c3[nH]c3ccccc34)CC2)cc1 | – | inactive: 5.93%
COc1ccc(-c2noc(CNC(=O)c3ccc4c(c3)OCO4)n2)cc1OC | – | inactive: 5.87%
CCOC(=O)N1CCN(C(=O)c2cc(-c3ccc(OCC)cc3)nc3ccccc23)CC1 | active: 3.66 µM | –
O=C1CC(=C(c2ccccc2)c2ccccc2)C(=O)N1CCCCN1CCN(c2cccc(Cl)c2)CC1 | inconclusive [activator, full curve, poor fit] | –
Nc1ccc(S(=O)(=O)Nc2nccc(/C=C/c3cccc(Br)c3)n2)cc1 | inconclusive [activator, partial curve] | –
COc1ccc(C2/C=C\CC(OCc3ccccc3)CC(=O)N2Cc2cccc(F)c2)cc1 (stereo not given) | inconclusive [activator, single point] | –
CCN1CCN(CCCNC(=O)c2cc3c(s2)-c2ccccc2OC3)CC1 | inconclusive [activator, single point] | –
CO/N=C(/C(=O)N[C@@H]1C(=O)N2C(C(=O)O)=C(CSc3nc(C)c(CC(=O)O)s3)CS[C@H]12)c1csc(N)n1 | – | inactive: -2.72%
COC(=O)c1c(-c2ccc(Br)cc2)noc1N | inconclusive [activator, partial curve, poor fit] | –
Cc1c(Cl)ccc2c(C(O)CBr)cc(-c3ccccc3)nc12 (stereo not given) | active: 20.6 µM | –
O=C1CC(c2ccccc2)Cc2nc(N3CCc4ccccc4C3)ncc21 (stereo not given) | inconclusive [activator, partial curve, poor fit] | –
O=C(c1ccccc1)C(CCC(CN1CCOCC1)C(=O)c1ccccc1)CN1CCOCC1 (stereo not given) | active: 4.61 µM | –
C=CCn1c(SCc2c(C)noc2C)nc2sc3c(c2c1=O)CCCCC3 | inconclusive [activator, partial curve, poor fit] | –
CCOC(=O)c1c(C)[nH]c(C(=O)N/N=C/c2cccc(OC)c2)c1C | inconclusive [activator, single point] | –
Cc1ccc(C)c(S(=O)(=O)N2CCCC2CNC(=O)C(=O)NCCc2ccccc2)c1 (stereo not given) | inconclusive [activator, single point] | –
COc1ccc(NC(=O)/C(C#N)=C\c2cc(OC)c(OCc3ccc(C(=O)O)cc3)cc2Br)cc1 | active: 16.4 µM | –
Cc1ccc(S(=O)(=O)N2CCCCC2)cc1NC(=O)CCOc1ccccc1 | – | inactive: 6.29%
COc1ccc(CC(=O)N2N=C(C)CC2(O)c2cccnc2)cc1 (stereo not given) | – | inactive: 6.29%
CCOC(=O)N1CCN(c2nc(C)cc(C(F)(F)F)n2)CC1 | – | inactive: 10.2%
O=C(Nc1cccc2ccccc12)c1ccc([N+](=O)[O-])o1 | active: 5.8 µM | –
COc1ccc(-c2csc(Cc3nc(O)cs3)n2)cc1 | inconclusive [activator, single point] | –
COc1cccc(OCC(=O)NC2CCCCCC2)c1 | – | inactive: -2.05%
